Laboratory results published in PubChem BioAssay AID686978 (National Center for Advancing Translational Sciences (NCATS), 2013).
Where “and” joins values, the source holds several entries; their conditions need not be identical. Identical values can stand only once. About 64,000 (15%) of roughly 420,000 compounds were called active. Inconclusive means that the source gave no clear call. Such entries were picked first, then a sample of the others. The call rests on the fitted dose curve; in most records, active means well fitted inhibition curve with a large enough effect; inconclusive means small, poorly fitted or top-dose-only effect; inactive means flat fitted curve, though single readings scatter. Potencies beside an inconclusive call are fits to weak or partial responses and may not hold up.

Assay: qHTS for Inhibitors of human tyrosyl-DNA phosphodiesterase 1 (TDP1): qHTS in cells in absence of CPT; further: nearly all actives have a fitted effect of over 55% in size
Details: DT40 Tdp1-/- hTDP1 cells, no CPT, ATP luminescence, 48 h; activity change, negative = growth inhibition: at 46.2 µM (top of the series) unless noted
In short: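 No-CPT arm: Tdp1-/-;hTDP1 DT40 cells (400/well) plus compounds, incubated ≥48 hr at 37 °C. Readout CellTiter-Glo luminescence.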
On the % scale 0 is the no-effect control and ±100 the full control effect; potency means the concentration at half of the fitted maximal effect; tags describe the fitted curve by direction and shape.

Row | Structure (SMILES) | Potency | activity change, negative = growth inhibition
1 | CCn1c(Cc2ccccc2)n[nH]c1=S | inactive | 
2 | CC(=O)c1ccc(NC(=O)CSc2nc(=O)n(Cc3ccccn3)c3c2CCC3)cc1 | inconclusive: 29.1 µM [inhibitor, single point] | 
3 | Cc1cccc(-n2ncc3c(Nc4c(C)n(C)n(-c5ccccc5)c4=O)ncnc32)c1 | inconclusive: 2.31 µM [inhibitor, full curve] | 
4 | O=[N+]([O-])c1ccc(-c2csc(N3CCCCCC3)n2)cc1 | inactive | 
5 | Cc1c(C(=O)OCC(=O)N(C)Cc2ccccc2)oc2ccccc12 | inconclusive: 25.9 µM [inhibitor, single point] | 
6 | CCOc1cc(/C=C/c2ccc3cccc([N+](=O)[O-])c3n2)ccc1OCC(=O)N(C)C | inconclusive: 23.1 µM [inhibitor, single point] | 
7 | COc1ccccc1CNC(=O)CCNS(=O)(=O)c1cc(Br)cnc1N | inconclusive: 29.1 µM [inhibitor, single point] | 
8 | Cc1cc(C)n(C2CC(=O)N(c3ccc(Cl)c(Cl)c3)C2=O)n1 (stereo not drawn) | inactive | 
9 | COc1ccc(NC(=O)c2c(F)cccc2F)cc1S(=O)(=O)Nc1ccc(Br)cc1 | inactive | 
10 | CC(=O)Nc1cccc(NC(=O)c2ccc(S(=O)(=O)NCc3ccco3)cc2)c1 | inconclusive: 29.1 µM [inhibitor, single point] | 
11 | N#CCCN1CCn2c1nc1ccccc12 | inactive | 
12 | O=C1NC(c2ccccc2Br)=N/C1=C\c1ccco1 | inconclusive: 5.17 µM [inhibitor, full curve, poor fit] | 
13 | O=C(CCCN1CCOC(c2ccccc2)C1)c1ccc(F)cc1 (stereo not drawn) | inactive | 
14 | O=c1c2ccccc2cnn1CCOc1cccc(Br)c1 | inconclusive: 29.1 µM [inhibitor, single point] | 
15 | O=[N+]([O-])c1c(Nc2ccccn2)cc(Cl)c2nonc12 | active: 5.17 µM | 
16 | Nc1nc(CN2CCN(C(c3ccccc3)c3ccccc3)CC2)nc(Nc2ccccc2)n1 | active: 23.1 µM | 
17 | O=C(CCC1N=C2c3ccccc3N=C(SCc3ccc(Cl)cc3)N2C1=O)NCc1cccs1 (stereo not drawn) | inconclusive: 29.1 µM [inhibitor, single point] | 
18 | Cc1cc(=O)c(C(=O)O)nn1-c1ccccc1Cl | inactive | 
19 | O=[N+]([O-])c1ccccc1NCCNS(=O)(=O)c1ccc(Cl)cc1 | inactive | 
20 | COc1ccc(NC(=O)c2sc(NC(=O)C3CC3)nc2C)cc1 | inactive | 
21 | CCCCN(CCCC)S(=O)(=O)c1ccc(NC(=O)CN2CCOCC2)cc1 | inconclusive: 29.1 µM [inhibitor, single point] | 
22 | CCCC1(C(=O)OC)NC(c2cccc(F)c2)C2C(=O)N(CC)C(=O)C21 (stereo not drawn) |  | inconclusive: -33.2% [inhibitor]
23 | C[C@@H](NC(=O)Cn1cnc2c(OCc3ccccc3)ncnc21)c1cccc2ccccc12 | inconclusive: 29.1 µM [inhibitor, single point] | 
24 | Cc1ccc(S(=O)(=O)Oc2ccccc2/C=N/Nc2ccc(C(=O)O)cc2)cc1 | inactive | 
25 | CC[n+]1c(C)n(-c2ccccc2)c2ccc(C(=O)OC)cc21 | inactive | 

Row | Structure (SMILES) | Potency | activity change, negative = growth inhibition
26 | COc1ccc(CCNc2ncnc3c2cnn3-c2ccc(C)c(Cl)c2)cc1 | inconclusive: 23.1 µM [inhibitor, single point] | 
27 | O=C(NCC1CCCO1)c1ccc(Cn2c(=S)[nH]c3ccccc3c2=O)cc1 (stereo not drawn) | inactive | 
28 | Cc1ccc(NS(=O)(=O)c2ccc3oc(=O)c4ncn(C)c4c3c2)cc1C | inactive | 
29 | CN(C)c1ccc(CNC(=O)CN2C(=O)C3CCCCN3c3ccc(C(=O)N4CCCC4)cc32)cc1 (stereo not drawn) | inconclusive: 29.1 µM [inhibitor, single point] | 
30 | Cc1ccccc1CSc1nc2[nH]ncc2c(=O)[nH]1 | inconclusive: 7.31 µM [inhibitor, single point] | 
31 | Cc1ccc(S(=O)(=O)Nc2ccccc2N(C)S(=O)(=O)c2ccc(C)cc2)cc1 | inconclusive: 20.6 µM [inhibitor, single point] | 
32 | CCN(CC)CCC(=O)NN | inactive | 
33 | OCCN(CC(O)Cn1ccc2ccccc21)CC(O)Cn1ccc2ccccc21 (stereo not drawn) | inconclusive: 9.2 µM [inhibitor, partial curve, poor fit] | 
34 | CCOc1ccc(-c2nn(-c3ccccc3)cc2/C=C2\SC(=S)N(Cc3ccco3)C2=O)cc1 | inconclusive: 29.1 µM [inhibitor, single point] | 
35 | O=S(=O)(Nc1ccc(Cl)cc1)c1cccc2cccnc12 | inconclusive: 29.1 µM [inhibitor, single point] | 
36 | COc1ccc(-c2nn(-c3ccccc3F)cc2CNCCn2nc(C)cc2C)cc1 | inconclusive: 25.9 µM [inhibitor, single point] | 
37 | O=C(Nc1ccccn1)c1ccco1 | inactive | 
38 | Cn1c(SCC(=O)Nc2nc(C(C)(C)C)cs2)nnc1C1CC1 | inactive | 
39 | CN1CCN(c2ccccc2NC(=O)c2ccc3c(c2)OCCO3)CC1 | inconclusive: 8.2 µM [inhibitor, partial curve] | 
40 | CCOc1ccc(CCN2C(=S)N([C@@H](Cc3ccc(O)cc3)CN3CCC[C@@H]3CN3C(=S)NC[C@@H]3Cc3ccccc3)C[C@@H]2CC(C)C)cc1 | active: 9.2 µM | 
41 | CCC(=O)N1CCc2cc(S(=O)(=O)NC(CC(C)C)C(=O)Nc3cccc(C)c3C)ccc21 (stereo not drawn) | inactive | 
42 | O=C(Nc1ccc(F)cc1)c1cccc2c1C(=O)N(Cc1ccccn1)C2 | inconclusive: 23.1 µM [inhibitor, single point] | 
43 | O=C(NCC1CCCO1)c1ccc(Br)s1 (stereo not drawn) | inactive | 
44 | CCOc1cc2nc3c4ccccc4n(C)c3nc2cc1OCC | inconclusive: 0.461 µM [inhibitor, full curve, poor fit] | 
45 | N#Cc1ccccc1-c1ccc2ncnc(NCCN3CCOCC3)c2c1 | inactive | 
46 | CC(C)CCNC(=O)C1CCN(S(=O)(=O)c2ccc3c(c2)CCC(=O)N3)CC1 | inactive | 
47 | Cc1ccc(S(=O)(=O)C(CNC(=O)C(=O)NCCc2ccc(Cl)cc2)c2ccco2)cc1 (stereo not drawn) | inconclusive: 6.51 µM [inhibitor, single point] | 
48 | CCOC(=O)c1sc2nc(C)nc(NCCc3ccccn3)c2c1C | active: 20.6 µM | 
49 | CCOC(=O)c1[nH]c2ccc(Br)cc2c1NC(=O)CCN1CCC(C)CC1 | active: 18.4 µM | 
50 | C=CCn1c(SCC(=O)Nc2c(C)cccc2C)nnc1-c1cnccn1 | inactive | 

Row | Structure (SMILES) | Potency | activity change, negative = growth inhibition
51 | CC(C)(C)OC(=O)N1CC=C2C(C#N)=C(N)C(C#N)(C#N)[C@H](c3cccnc3)[C@H]2C1 | inconclusive: 13 µM [inhibitor, partial curve, poor fit] | 
52 | Cn1c(=O)c2c(ncn2CC(=O)OCC(=O)c2ccc(Br)cc2)n(C)c1=O | active: 25.9 µM | 
53 | C=CCn1c(-c2cc(Cl)ccc2OC)n[nH]c1=S | inactive | 
54 | CCOc1ccc(N2CC(C(=O)Nc3cccc(C)c3C)CC2=O)cc1 (stereo not drawn) | inactive | 
55 | COc1ccc(C(=O)COC(=O)CN2C(=O)NC3(CC(C)CC(C)(C)C3)C2=O)c(OC)c1 (stereo not drawn) | inconclusive: 18.4 µM [inhibitor, single point] | 
56 | CCOC(=O)C1=NN(c2cccc(Cl)c2)C2=NC(C)=C(C(=O)OC)C(c3cccs3)N12 (stereo not drawn) | inactive | 
57 | COCCNC(=O)C(=O)Nc1cc2c3c(c1)CCC(=O)N3CCC2 | inactive | 
58 | C=C1C=C(C)n2ncc(C(=O)Nc3ccccc3O)c2N1 | inconclusive: 11.2 µM [inhibitor, partial curve] | 
59 | COc1cc(/C=N/N2CCN(Cc3ccccc3)CC2)cc(OC)c1OC | inconclusive: 29.1 µM [inhibitor, single point] | 
60 | O=C(NCCOc1ccccc1)C1Nc2ccc(C(F)(F)F)cc2C2c3ccccc3CC12 (stereo not drawn) | inconclusive: 29.1 µM [inhibitor, single point] | 
61 | Cc1ccc2sc(N(CCCN(C)C)C(=O)c3ccc(Br)s3)nc2c1C | inconclusive: 25.9 µM [inhibitor, single point] | 
62 | Cc1ccc(-c2c[n+](CC(=O)c3ccc(Br)cc3)c3n2CCCCC3)cc1 | active: 1.64 µM | 
63 | Nc1nc(NCC2CCCO2)nc(Nc2cccc(Cl)c2)c1[N+](=O)[O-] (stereo not drawn) | inconclusive: 18.4 µM [inhibitor, single point] | 
64 | COc1ccc(C(CNC(=O)c2oc3cc(C)c(C)cc3c2C)N2CCCCC2)cc1 (stereo not drawn) | active: 9.2 µM | 
65 | OC(C[n+]1c(Cl)ccc2ccccc21)c1ccccc1 (stereo not drawn) | inconclusive: 7.08 µM [inhibitor, partial curve] | 
66 | CCOc1cc(/C=N\NC(=O)Cn2nc([N+](=O)[O-])cc2C)ccc1OCc1cccc2ccccc12 | inconclusive: 14.6 µM [inhibitor, partial curve] | 
67 | Cc1ccc(Nc2nc(N)nc(CSc3nc4ccccc4s3)n2)cc1 | inconclusive: 25.9 µM [inhibitor, single point] and inconclusive: 23.1 µM [inhibitor, single point] | 
68 | Cc1cc(C(=O)OCC(=O)c2cccc([N+](=O)[O-])c2)c2cccc(C)c2n1 | inconclusive: 29.1 µM [inhibitor, single point] | 
69 | O=C(c1ccco1)N1CCn2cccc2C1c1ccccc1 (stereo not drawn) | inconclusive: 29.1 µM [inhibitor, single point] | 
70 | CN(CC(=O)Nc1ccccc1Cl)C(=O)c1ccc(N2CCCCCC2)c([N+](=O)[O-])c1 | active: 18.4 µM | 
71 | CCCn1c(SCC(=O)Nc2sc(C)c(C)c2C(=O)OCC)nc2c1c(=O)n(C)c(=O)n2C | inactive | 
72 | COc1ccc(-c2coc3c(C(=O)N4CCN(C)CC4)cccc23)c(C)c1 | inconclusive: 29.1 µM [inhibitor, single point] | 
73 | CS(=O)(=O)N1CCC2CC1c1cc(-c3ccccc3)ccc12 (stereo not drawn) | inconclusive: 23.1 µM [inhibitor, single point] | 
